{"source": "the BET-seq Pho4 binding data (Le et al. 2018)", "note": "Some of the results follow. These are noisy estimates, calculated here from bound and input reads.", "data": [{"target": "T1, Pho4 (S. cerevisiae) (UniProt P07270)", "T1 sequence": "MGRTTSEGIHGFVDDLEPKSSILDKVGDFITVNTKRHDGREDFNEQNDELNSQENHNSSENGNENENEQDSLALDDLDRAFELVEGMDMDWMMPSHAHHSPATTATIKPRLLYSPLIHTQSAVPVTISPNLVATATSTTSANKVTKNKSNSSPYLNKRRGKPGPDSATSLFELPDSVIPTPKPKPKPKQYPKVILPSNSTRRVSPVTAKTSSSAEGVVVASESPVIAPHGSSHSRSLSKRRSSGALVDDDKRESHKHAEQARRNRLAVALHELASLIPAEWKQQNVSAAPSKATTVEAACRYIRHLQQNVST", "test": "relative binding free energy (BET-seq); higher = weaker binding", "details": "reference: library average", "units": {"relative binding free energy": "kcal/mol"}, "values": [{"sequence": "GGGGTCACGTGATGCG", "relative binding free energy": 0.23}, {"sequence": "TCTTGCACGTGGTGGA", "relative binding free energy": 0.06}, {"sequence": "GTTGGCACGTGTAGTC", "relative binding free energy": 0.09}, {"sequence": "TGTATCACGTGTTAAA", "relative binding free energy": 0.12}, {"sequence": "ATTGGCACGTGTGCAG", "relative binding free energy": -0.33}, {"sequence": "CTGTGCACGTGAGGAT", "relative binding free energy": 0.34}, {"sequence": "TGGAGCACGTGAGTAA", "relative binding free energy": 0.25}, {"sequence": "CGCGGCACGTGCGGGT", "relative binding free energy": -0.15}, {"sequence": "ACTTACACGTGGTTTA", "relative binding free energy": 0.04}, {"sequence": "GTTGACACGTGTTGGG", "relative binding free energy": 0.09}, {"sequence": "GGAGTCACGTGGATTT", "relative binding free energy": 0.31}, {"sequence": "ACGGGCACGTGTGTGA", "relative binding free energy": -0.07}, {"sequence": "TTGGCCACGTGTTAAG", "relative binding free energy": 0}, {"sequence": "TGTCGCACGTGGATAT", "relative binding free energy": -0.01}, {"sequence": "GTAACCACGTGGTTGG", "relative binding free energy": -0.04}, {"sequence": "AGGGGCACGTGTCGGT", "relative binding free energy": -0.07}, {"sequence": "GGTACCACGTGTAGGG", "relative binding free energy": -0.26}, {"sequence": "TTTTTCACGTGTGCAT", "relative binding free energy": 0.3}, {"sequence": "TTATACACGTGGAATG", "relative binding free energy": -0.02}, {"sequence": "TTCGTCACGTGGTTTG", "relative binding free energy": 0.14}, {"sequence": "TAGTCCACGTGGGATT", "relative binding free energy": 0.06}, {"sequence": "TTAGACACGTGGACAT", "relative binding free energy": 0.25}, {"sequence": "AGTAGCACGTGGTCGT", "relative binding free energy": -0.12}, {"sequence": "TTTAGCACGTGTTAAT", "relative binding free energy": -0.05}, {"sequence": "CGGTACACGTGTTGGT", "relative binding free energy": 0.1}, {"sequence": "CTGTGCACGTGTGGCT", "relative binding free energy": -0.06}, {"sequence": "TTCTGCACGTGTTTGT", "relative binding free energy": 0.04}, {"sequence": "ATAGCCACGTGATGTA", "relative binding free energy": 0.17}, {"sequence": "AGTGTCACGTGAGGGT", "relative binding free energy": 0.21}, {"sequence": "TTGGACACGTGTTTGC", "relative binding free energy": 0.03}, {"sequence": "GGGCTCACGTGTTAGT", "relative binding free energy": 0.33}, {"sequence": "TGTATCACGTGCCGTG", "relative binding free energy": 0.11}, {"sequence": "AAGGGCACGTGGCATG", "relative binding free energy": -0.2}, {"sequence": "TTAAGCACGTGTGGTT", "relative binding free energy": -0.07}, {"sequence": "ATTGACACGTGGGGTC", "relative binding free energy": -0.07}, {"sequence": "ATTTACACGTGTTGGC", "relative binding free energy": 0.15}, {"sequence": "TCAGGCACGTGGGGGG", "relative binding free energy": -0.16}, {"sequence": "GTATGCACGTGTGTGT", "relative binding free energy": 0.09}, {"sequence": "GTAGCCACGTGGTTGG", "relative binding free energy": -0.08}, {"sequence": "GTATTCACGTGTCGAA", "relative binding free energy": 0.27}, {"sequence": "CAGGACACGTGCAGGG", "relative binding free energy": 0.06}, {"sequence": "GCTATCACGTGAGGTG", "relative binding free energy": 0.38}, {"sequence": "ATTTGCACGTGGGGGA", "relative binding free energy": -0.1}, {"sequence": "GCTTCCACGTGGGTTG", "relative binding free energy": -0.04}, {"sequence": "TAAATCACGTGATAGG", "relative binding free energy": 0.22}, {"sequence": "TTCGGCACGTGTGGAT", "relative binding free energy": 0.06}, {"sequence": "GGGTCCACGTGTGAAT", "relative binding free energy": 0.13}, {"sequence": "AGCGGCACGTGTAGGG", "relative binding free energy": -0.05}, {"sequence": "GTTTGCACGTGTCAAA", "relative binding free energy": 0.17}, {"sequence": "ATCGGCACGTGGTAAT", "relative binding free energy": -0.08}, {"sequence": "TGAGTCACGTGCATTA", "relative binding free energy": 0.23}, {"sequence": "AATTGCACGTGGATTT", "relative binding free energy": 0.1}, {"sequence": "TTGAACACGTGGAGGA", "relative binding free energy": 0.13}, {"sequence": "TGTGGCACGTGGCGTG", "relative binding free energy": -0.21}, {"sequence": "AGTTGCACGTGCTGCG", "relative binding free energy": -0.09}, {"sequence": "TATGTCACGTGAAGCG", "relative binding free energy": 0.24}, {"sequence": "TGTTTCACGTGGGTGG", "relative binding free energy": 0.21}, {"sequence": "GATGGCACGTGGGTTG", "relative binding free energy": -0.15}, {"sequence": "CTGGGCACGTGTGTTC", "relative binding free energy": -0.01}, {"sequence": "CGTGTCACGTGAAGGA", "relative binding free energy": 0.29}, {"sequence": "GGGGGCACGTGTTTAT", "relative binding free energy": -0.04}, {"sequence": "GAGAACACGTGGGGAA", "relative binding free energy": 0.04}, {"sequence": "CTGGACACGTGATGGG", "relative binding free energy": 0.25}, {"sequence": "ATGCGCACGTGTGTCT", "relative binding free energy": -0.04}, {"sequence": "GTTTTCACGTGAGATG", "relative binding free energy": 0.4}, {"sequence": "TGTTACACGTGGTAAT", "relative binding free energy": 0.11}, {"sequence": "AATAACACGTGTGGAT", "relative binding free energy": 0.14}, {"sequence": "ATACACACGTGGGGGG", "relative binding free energy": -0.25}, {"sequence": "GTACGCACGTGCTGGG", "relative binding free energy": -0.18}, {"sequence": "TGAATCACGTGGCTGT", "relative binding free energy": -0.09}, {"sequence": "AATGGCACGTGCGCGT", "relative binding free energy": -0.3}, {"sequence": "GTGGGCACGTGATTCT", "relative binding free energy": 0.1}, {"sequence": "CTGCGCACGTGAGTGT", "relative binding free energy": 0.04}, {"sequence": "AGTTGCACGTGGGCTA", "relative binding free energy": -0.08}, {"sequence": "GTTGGCACGTGTGAAT", "relative binding free energy": 0.11}, {"sequence": "TCTTTCACGTGGGGAA", "relative binding free energy": 0.28}, {"sequence": "TACTGCACGTGAGTGA", "relative binding free energy": 0.15}, {"sequence": "AGGAACACGTGTTGGG", "relative binding free energy": 0.03}, {"sequence": "AGGGTCACGTGTTTAC", "relative binding free energy": 0.04}, {"sequence": "AGTGGCACGTGTGGTA", "relative binding free energy": -0.01}, {"sequence": "GGCAGCACGTGGTGCT", "relative binding free energy": -0.07}, {"sequence": "AGGTGCACGTGAGCGG", "relative binding free energy": 0.19}, {"sequence": "TCTGTCACGTGCGTGG", "relative binding free energy": -0.09}, {"sequence": "TAGTTCACGTGCGGTC", "relative binding free energy": 0.28}, {"sequence": "TGTATCACGTGCGGGG", "relative binding free energy": -0.04}, {"sequence": "TTTATCACGTGGGGTC", "relative binding free energy": -0.02}, {"sequence": "ACTTGCACGTGGTGGT", "relative binding free energy": -0.06}, {"sequence": "TGGTGCACGTGGATCT", "relative binding free energy": 0.01}, {"sequence": "CGGCACACGTGGGAGG", "relative binding free energy": -0.15}, {"sequence": "GATTACACGTGTTAAG", "relative binding free energy": 0.14}, {"sequence": "GGTTGCACGTGAGTTT", "relative binding free energy": 0.36}, {"sequence": "TCTCTCACGTGTATTT", "relative binding free energy": 0.19}, {"sequence": "AGCGGCACGTGGTTTC", "relative binding free energy": -0.08}, {"sequence": "GTTTTCACGTGGAGTT", "relative binding free energy": 0.32}, {"sequence": "TTGGTCACGTGGCCAG", "relative binding free energy": 0.09}, {"sequence": "GGAGTCACGTGAGTAT", "relative binding free energy": 0.38}, {"sequence": "TAAGGCACGTGGGGGT", "relative binding free energy": -0.19}, {"sequence": "GTATACACGTGGGCAT", "relative binding free energy": -0.03}, {"sequence": "GGTTACACGTGAGGTA", "relative binding free energy": 0.38}, {"sequence": "AAAGTCACGTGGCTAT", "relative binding free energy": 0.24}, {"sequence": "TGGGTCACGTGTGGGA", "relative binding free energy": 0.17}, {"sequence": "AAGGCCACGTGTTTGT", "relative binding free energy": -0.09}, {"sequence": "GTGATCACGTGCTGGG", "relative binding free energy": 0.22}, {"sequence": "GCATTCACGTGGTGTA", "relative binding free energy": 0.16}, {"sequence": "TTAGCCACGTGCGTGT", "relative binding free energy": -0.12}, {"sequence": "TATTACACGTGATCTT", "relative binding free energy": 0.12}, {"sequence": "TCACGCACGTGTTGTG", "relative binding free energy": -0.07}, {"sequence": "GGTCGCACGTGGTTGC", "relative binding free energy": -0.07}, {"sequence": "AGTGGCACGTGTTCGC", "relative binding free energy": -0.1}, {"sequence": "GGGGCCACGTGAAATT", "relative binding free energy": 0.29}, {"sequence": "GAGTACACGTGAAGGT", "relative binding free energy": 0.24}, {"sequence": "TAGTGCACGTGTGCGC", "relative binding free energy": -0.03}, {"sequence": "ACTATCACGTGTGTCT", "relative binding free energy": 0.3}, {"sequence": "GTCAGCACGTGTTAGT", "relative binding free energy": 0.04}, {"sequence": "CTTTTCACGTGTGTCT", "relative binding free energy": 0.2}]}]}
